# Assay results taken from the supplement of paper PMC10126150.
# Values marked as one replicate rest on one cluster of the flow cell; about a third of the high ones do not repeat.
# Tested on: ATP
# Assay: switch fluorescence ratio, 500 uM ATP over buffer (Cy3 cluster intensity, sum of 5 cycles each) (fold (ratio)); higher = stronger signal-on switching upon ATP binding; sequences stand for … in TCGTCGGCAGCGTCAGATGTGTATAAGAGACAGTTTTTTTTTTTTTTTTTTTTTTTTT…TC
# Settings: aptamer strand: ATP DNA aptamer (quencher-CACCTGGGGGAGTATTGCGGAGGAAGG + anchor), 100 nM annealed; ATP concentration: 500 uM; one replicate
# In short: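 Between each of five buffer/ATP cycles, the flow-cell was stripped with NaOH and re-annealed. Each cycle imaged Cy3-labelled switching-strand clusters, annealed to 100 nM quencher-labelled ATP aptamer on a modified Illumina MiSeq flow-cell, first in selection buffer and then after 15 min with 500 uM ATP at 22 °C. The fluorescence ratio is summed target-cycle over summed buffer-cycle Cy3 intensity per cluster, averaged per switch-domain sequence, with clusters outside 100-1000 RFU excluded.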
# 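Note: ATP exposure 15 min at 22 °C before imaging.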
row,Sequence,switch fluorescence ratio
1,GGCTGTATAT,1.01
2,GGCTGTATCC,1
3,GGCTGTTTCT,0.933
4,GGCTTAAATT,0.988
5,GGCTTATCAC,1.02
6,GGCTTCTATG,0.957
7,GGCTTGAATT,0.958
8,GGCTTTAGAG,0.989
9,GGCTTTGCCG,1.03
10,GGCTTTGTCG,0.94
11,GGCTTTTCGT,0.987
12,GGGAAAGTTG,0.95
13,GGGAACAAC,0.993
14,GGGAACATAC,1.37
15,GGGAACGGAC,1.13
16,GGGAACGTGG,1.26
17,GGGAACTAAC,1.04
18,GGGAAGTAGT,1.03
19,GGGAATACGG,0.957
20,GGGAATACTC,3.48
21,GGGAATATCG,1.06
22,GGGAATCAAT,1.01
23,GGGAATGTGC,1.07
24,GGGAATTGAG,0.977
25,GGGACAGTGA,1.02
26,GGGACCAGGC,1.07

row,Sequence,switch fluorescence ratio
1,GGGACCAGTC,1.01
2,GGGACCTAAT,1.03
3,GGGACGAGCA,1.14
4,GGGACTCTAG,1.02
5,GGGACTCTTG,0.985
6,GGGAGACGCT,0.991
7,GGGAGCATTT,0.994
8,GGGAGCTTA,0.952
9,GGGAGGTCTG,0.959
10,GGGAGTGCAA,1.04
11,GGGATAAAAA,0.987
12,GGGATACCGC,1.11
13,GGGATATCTA,1.02
14,GGGATATTTA,1.03
15,GGGATCCTAA,1.01
16,GGGATCTGTG,1.02
17,GGGATGCCTC,1.03
18,GGGCAAATTT,1.02
19,GGGCACGCAC,1.59
20,GGGCAGAAAA,0.998
21,GGGCAGGACG,0.944
22,GGGCAGTGTT,1.08
23,GGGCAGTTAC,1.7
24,GGGCATGTA,1.02
25,GGGCCAGAGC,0.93
26,GGGCCAGGAA,0.972

row,Sequence,switch fluorescence ratio
1,GGGCCCAGGC,1.07
2,GGGCCGCCGG,1.07
3,GGGCGAAAGA,1.04
4,GGGCGAAGGC,0.98
5,GGGCGAGACT,1.02
6,GGGCGCGGCA,1.01
7,GGGCGCTAAC,1.1
8,GGGCGCTTGG,1.02
9,GGGCGCTTGT,1.01
10,GGGCGGGGCC,0.982
11,GGGCTAACCC,0.967
12,GGGCTAAGCG,1.04
13,GGGCTAATTT,1.01
14,GGGCTAGTAG,1
15,GGGCTCAATG,0.978
16,GGGCTGTCTC,1
17,GGGGAAAAAC,1.02
18,GGGGAAGGTC,0.975
19,GGGGAAGTGA,0.975
20,GGGGACTGAC,1.18
21,GGGGAGAGCA,0.989
22,GGGGAGCAAA,1
23,GGGGAGCTAA,1.02
24,GGGGAGGGT,0.976
25,GGGGAGTCGC,1.03
26,GGGGATCAAC,0.967

row,Sequence,switch fluorescence ratio
1,GGGGATCTGG,0.992
2,GGGGCACCTA,0.996
3,GGGGCCACT,0.956
4,GGGGCCCAG,1.04
5,GGGGCCCCAC,1.02
6,GGGGCCTGGG,1.02
7,GGGGCGAATG,0.96
8,GGGGCGGTAA,1.04
9,GGGGCGGTCG,1.07
10,GGGGCTAGG,1.12
11,GGGGCTGTT,1.06
12,GGGGCTTCGT,1.01
13,GGGGGCACCA,1.03
14,GGGGGCATCC,1.1
15,GGGGGGCCAA,1.02
16,GGGGGTAT,0.992
17,GGGGGTATAA,1.02
18,GGGGGTCAC,1.01
19,GGGGGTTAGC,0.99
20,GGGGTCACG,0.999
21,GGGGTCCCTA,0.988
22,GGGGTCGCGT,0.999
23,GGGGTGCATA,0.985
24,GGGGTGCGTC,1
25,GGGGTGTGAT,1.03
26,GGGTAACTTG,0.995

row,Sequence,switch fluorescence ratio
1,GGGTACCTGA,1.02
2,GGGTACGATG,1.03
3,GGGTAGCTGG,1.01
4,GGGTAGGATC,1.02
5,GGGTAGGCTC,1.03
6,GGGTAGTAT,0.971
7,GGGTATTACA,1.04
8,GGGTCAAAAT,1
9,GGGTCAGAGC,1.04
10,GGGTCAGGAA,1.01
11,GGGTCCTGG,1.03
12,GGGTCCTTGA,0.997
13,GGGTCGAAGT,1.01
14,GGGTCGAGGC,1.05
15,GGGTCGCGCT,0.98
16,GGGTCTGACG,0.996
17,GGGTGACGTT,1
18,GGGTGCACGT,1.01
19,GGGTGCACTA,0.996
20,GGGTGCATTC,1.11
21,GGGTGCCTTA,0.965
22,GGGTGGAATG,0.994
23,GGGTGGATTA,1.03
24,GGGTGGGATC,0.974
25,GGGTGGGTCG,1.03
26,GGGTGTAGT,1.02

row,Sequence,switch fluorescence ratio
1,GGGTGTATCT,1.01
2,GGGTGTATGA,1.02
3,GGGTGTCATG,1.05
4,GGGTGTGGT,0.98
5,GGGTTACCGG,0.981
6,GGGTTACGAC,1.03
7,GGGTTATCGC,1.01
8,GGGTTCGGAC,1.01
9,GGGTTGTCGG,0.971
10,GGGTTTGA,1.03
11,GGGTTTTGAG,0.985
12,GGTAAAGTGG,1
13,GGTAAATTTG,0.987
14,GGTAAGTGTA,0.96
15,GGTAATCGGC,0.996
16,GGTAATGCAT,0.949
17,GGTAATTAGT,1
18,GGTAATTGAG,0.958
19,GGTACAGGAA,1.04
20,GGTACATTGG,0.98
21,GGTACCCCAT,0.963
22,GGTACCTCTC,0.991
23,GGTACGACCG,1.01
24,GGTACGCCCC,1.12
25,GGTACGCCGG,1
26,GGTACGCTGG,0.988

row,Sequence,switch fluorescence ratio
1,GGTAGAAAG,0.956
2,GGTAGAGATG,0.987
3,GGTAGATGTA,0.985
4,GGTAGCAAAC,3.3
5,GGTAGCACAT,1.04
6,GGTAGCCTCT,0.997
7,GGTAGCGTCA,1
8,GGTAGCTGGT,1
9,GGTAGGACGC,0.987
10,GGTAGGAGTG,1.03
11,GGTAGGGTAT,1.02
12,GGTAGGTCTC,0.982
13,GGTAGGTTTC,0.996
14,GGTAGTTGAT,0.988
15,GGTAGTTTAG,0.989
16,GGTATAACCT,1.23
17,GGTATAGCAG,0.976
18,GGTATATAT,0.928
19,GGTATCGATG,0.953
20,GGTATGGGAA,0.941
21,GGTATGTTTC,1.01
22,GGTATTACTA,0.986
23,GGTATTCGCT,0.988
24,GGTATTGGTC,1
25,GGTATTTGTC,1.01
26,GGTCAAATTG,1.02

row,Sequence,switch fluorescence ratio
1,GGTCAACACA,0.941
2,GGTCAAGGCG,1
3,GGTCAATGCG,1.17
4,GGTCAGGCTA,0.961
5,GGTCATTAGT,1.01
6,GGTCATTTGG,1.02
7,GGTCCACGTC,0.938
8,GGTCCCGGGC,0.979
9,GGTCCTTCTT,1.06
10,GGTCG,1.02
11,GGTCGAACGC,1
12,GGTCGAGTGC,0.983
13,GGTCGATGTA,0.931
14,GGTCGCTGTG,1.14
15,GGTCGGCGGT,0.981
16,GGTCGGGGCC,0.96
17,GGTCGGTACT,0.993
18,GGTCGTGGGG,1.01
19,GGTCTATATC,1
